Article PMC7481202
These are yes or no findings as the source states them, for the method shown. In cells and extracts the contact can be indirect. Some binding calls cover weakened binding; strength is not graded here. For part of these data: Sequences can lack the tags named with a protein.

The chains behind the UniProt entries cited, without tags or fusion partners.
UniProt P40763: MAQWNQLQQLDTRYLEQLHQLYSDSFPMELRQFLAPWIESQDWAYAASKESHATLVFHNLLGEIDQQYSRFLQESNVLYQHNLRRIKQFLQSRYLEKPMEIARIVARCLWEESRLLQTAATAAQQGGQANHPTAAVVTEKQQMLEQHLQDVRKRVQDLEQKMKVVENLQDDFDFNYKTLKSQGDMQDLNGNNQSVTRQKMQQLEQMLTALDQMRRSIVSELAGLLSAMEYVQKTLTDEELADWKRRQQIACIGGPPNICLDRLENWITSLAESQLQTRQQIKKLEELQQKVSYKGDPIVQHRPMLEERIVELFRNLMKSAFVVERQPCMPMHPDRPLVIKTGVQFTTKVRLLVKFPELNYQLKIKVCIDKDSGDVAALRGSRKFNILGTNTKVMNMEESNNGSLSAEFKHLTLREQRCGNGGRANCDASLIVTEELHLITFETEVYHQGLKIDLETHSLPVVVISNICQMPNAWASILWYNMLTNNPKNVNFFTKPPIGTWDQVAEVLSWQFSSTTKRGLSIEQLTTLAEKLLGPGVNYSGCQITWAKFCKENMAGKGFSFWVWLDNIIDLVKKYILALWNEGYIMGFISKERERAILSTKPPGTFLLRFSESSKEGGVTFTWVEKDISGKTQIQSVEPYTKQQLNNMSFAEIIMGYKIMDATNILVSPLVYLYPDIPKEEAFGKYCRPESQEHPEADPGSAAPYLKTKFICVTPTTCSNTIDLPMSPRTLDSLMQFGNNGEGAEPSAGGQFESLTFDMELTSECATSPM
UniProt P07355: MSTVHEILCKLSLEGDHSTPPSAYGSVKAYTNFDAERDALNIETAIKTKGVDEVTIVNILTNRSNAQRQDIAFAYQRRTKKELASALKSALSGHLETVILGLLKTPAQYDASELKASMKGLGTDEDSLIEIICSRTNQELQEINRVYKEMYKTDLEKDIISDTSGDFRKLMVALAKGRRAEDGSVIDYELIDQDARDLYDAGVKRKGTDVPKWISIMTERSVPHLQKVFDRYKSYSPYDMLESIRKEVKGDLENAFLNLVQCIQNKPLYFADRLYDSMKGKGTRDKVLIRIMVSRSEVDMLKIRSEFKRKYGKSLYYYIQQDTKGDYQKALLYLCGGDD
UniProt P60903: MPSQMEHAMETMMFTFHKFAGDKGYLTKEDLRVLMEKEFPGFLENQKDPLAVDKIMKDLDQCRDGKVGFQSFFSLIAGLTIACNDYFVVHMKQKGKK

Assays:
Prx2-SBP (human) = biological target: T1, Prx2-SBP (human) (UniProt P32119); test: pull-down; SBP-tagged bait from transfected, untreated cells; NEM block; lysis in 1% Triton X-100 in TBS; streptavidin sepharose 4 h; elution with 4 mM biotin; immunoblot; also after AnxA2 siRNA
T1 sequence: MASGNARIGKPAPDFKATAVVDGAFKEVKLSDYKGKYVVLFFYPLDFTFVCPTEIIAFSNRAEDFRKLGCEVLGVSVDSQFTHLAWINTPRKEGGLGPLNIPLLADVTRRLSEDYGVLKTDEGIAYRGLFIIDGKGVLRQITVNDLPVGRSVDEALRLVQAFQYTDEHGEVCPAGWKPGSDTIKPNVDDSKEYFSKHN

SBP-STAT3 (human) = SBP-STAT3 (human) (UniProt P40763); test: as above
[1] = biological target: annexin A2 (endogenous) (human (endogenous in HEK293 MSR and HeLa)) (UniProt P07355); test: proximity ligation; Duolink PLA on methanol-fixed HeLa cells, endogenous untagged proteins, two primary antibodies; wild type and AnxA2 KO cells
[2] = biological target: annexin A2 (endogenous) (human (endogenous in HEK293 MSR and HeLa)) (UniProt P07355); test: co-IP; immunoprecipitation of endogenous AnxA2, blot for endogenous STAT3 (Supplementary Fig. 3a); methods not shown
[3] = biological target: S100A10 (endogenous) (human (endogenous in HeLa)) (UniProt P60903); test: proximity ligation; Duolink PLA on methanol-fixed HeLa cells, endogenous untagged proteins, two primary antibodies; wild type and AnxA2 KO cells
STAT3-HA-LN151 (human) = STAT3-HA-LN151 (human) (UniProt P40763); test: split reporter; mLumin BiFC in HEK293 MSR cells; one partner stably expressed, the other transiently transfected; read 48 h after transfection in DPBS on a microplate reader; mLumin fluorescence normalised to co-transfected GFP

annexin A2 (endogenous) (from UniProt P07355 1-339)
binding (Prx2-SBP (human)): binds | binding (SBP-STAT3 (human)): binds

S100A10 (endogenous) (from UniProt P60903 1-97)
binding [1]: binds

STAT3 (endogenous) (from UniProt P40763 1-770)
binding [2]: binds | binding [3]: no binding | binding [1]: binds

B1: Prx1-MYC-LC151 (protein, UniProt Q06830 1-199)
chain: MSSGNAKIGHPAPNFKATAVMPDGQFKDISLSDYKGKYVVFFFYPLDFTFVCPTEIIAFSDRAEEFKKLNCQVIGASVDSHFCHLAWVNTPKKQGGLGPMNIPLVSDPKRTIAQDYGVLKADEGISFRGLFIIDDKGILRQITVNDLPVGRSVDETLRLVQAFQFTDKHGEVCPAGWKPGSDTIKPDVQKSKEYFSKQK
binding (STAT3-HA-LN151 (human)): binds weakly

B2: peroxiredoxin 2 (endogenous) (protein, UniProt P32119 1-198)
chain: MASGNARIGKPAPDFKATAVVDGAFKEVKLSDYKGKYVVLFFYPLDFTFVCPTEIIAFSNRAEDFRKLGCEVLGVSVDSQFTHLAWINTPRKEGGLGPLNIPLLADVTRRLSEDYGVLKTDEGIAYRGLFIIDGKGVLRQITVNDLPVGRSVDEALRLVQAFQYTDEHGEVCPAGWKPGSDTIKPNVDDSKEYFSKHN
binding [3]: no binding | binding [1]: binds
